# Experimental data published in PubChem BioAssay AID488969 (Vanderbilt High Throughput Screening Facility, 2010).
# In all, about 110,000 compounds were measured (“z-score”: median about -0.1, highest 2% from about 2 on). The list shows a part of the results.
# Biological target: Metabotropic glutamate receptor 8 (Rattus norvegicus) (UniProt P70579)
# Assay: mGluR8 Gi/Go-coupled signaling modulation – cell-based, rat, thallium flux, HTS, primary screen (AID 488969)
# Conditions: HEK293 rat mGluR8, GIRK (G protein-gated inwardly rectifying potassium channel) thallium flux, FluoZin2; at 10 µM; stronger effect = higher value; submaximal glutamate (EC20) added with thallium
# Sequence of UniProt P70579 (P70579 whole entry, looked up): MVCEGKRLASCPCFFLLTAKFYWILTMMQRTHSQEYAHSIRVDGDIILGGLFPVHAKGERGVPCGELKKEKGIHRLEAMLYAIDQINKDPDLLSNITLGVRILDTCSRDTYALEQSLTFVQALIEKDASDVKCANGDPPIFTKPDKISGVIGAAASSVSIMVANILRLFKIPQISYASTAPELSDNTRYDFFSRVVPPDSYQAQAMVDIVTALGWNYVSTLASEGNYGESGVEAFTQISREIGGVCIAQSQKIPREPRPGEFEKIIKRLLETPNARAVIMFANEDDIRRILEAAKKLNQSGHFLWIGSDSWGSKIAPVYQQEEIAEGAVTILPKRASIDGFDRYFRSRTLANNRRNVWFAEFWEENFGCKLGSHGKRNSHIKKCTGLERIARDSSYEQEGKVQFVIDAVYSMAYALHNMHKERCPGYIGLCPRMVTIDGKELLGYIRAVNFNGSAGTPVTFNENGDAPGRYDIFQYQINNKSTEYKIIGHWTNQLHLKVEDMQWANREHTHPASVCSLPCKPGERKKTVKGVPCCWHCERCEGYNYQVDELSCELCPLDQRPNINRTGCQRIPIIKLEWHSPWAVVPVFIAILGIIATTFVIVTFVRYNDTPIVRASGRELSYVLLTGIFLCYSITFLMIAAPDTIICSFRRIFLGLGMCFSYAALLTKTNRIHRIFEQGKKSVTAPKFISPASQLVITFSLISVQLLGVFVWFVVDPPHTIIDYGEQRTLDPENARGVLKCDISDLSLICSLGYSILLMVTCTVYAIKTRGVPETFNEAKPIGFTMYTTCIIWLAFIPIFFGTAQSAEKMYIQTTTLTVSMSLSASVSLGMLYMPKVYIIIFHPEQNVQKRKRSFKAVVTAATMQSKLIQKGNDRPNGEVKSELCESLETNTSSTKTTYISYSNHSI
row,SMILES,z-score
1,O=C1Nc2ccccc2C(O)(C(=O)NCc2ccco2)N1c1ccc(Cl)c(Cl)c1 (stereo not given),-0.554
2,O=C(CSc1oc(-c2ccc(F)cc2)nc1S(=O)(=O)c1ccccc1)NCC1CCCO1 (stereo not given),0.331
3,CCn1c(=O)c2cc(C(=O)Nc3cc(C)on3)sc2c2ccccc21,-0.19
4,COc1ccc(OC)c(C(=O)c2oc3ccccc3c2NC(C)=O)c1,-0.0828
5,COc1ccc(CNC(=O)C2CCN(c3nc(OC)nc(OC)n3)CC2)cc1,-0.353
6,CC[N+]1(C)CCC(=C2c3ccccc3CC(=O)c3sccc32)CC1 (stereo not given),0.444
7,O=C(OCn1nnc2ccccc2c1=O)c1cc(-c2ccccc2)nc2ccccc12,-0.103
8,COc1ccc(Br)cc1C(=O)Nc1cccc(C)c1C,-0.349
9,CCOc1ccccc1C1CC(=O)NC(SCC(=O)Nc2nccs2)=C1C#N (stereo not given),-0.415
10,Cc1ncc([N+](=O)[O-])n1CC(=O)NC1CCCC1,1.41
11,CCN1C(=O)c2cccc3c(S(=O)(=O)NCc4ccco4)ccc1c23,-0.124
12,Cc1cccc(C)c1NC(=O)CNC(=O)C(NC(=O)c1ccc(C(C)(C)C)cc1)C(C)C (stereo not given),-0.23
13,CC(=O)Nc1cc(C(=O)N2CCCC2)ccc1S(=O)(=O)c1ccc(Cl)cc1,-0.31
14,O=C(N/N=C/c1c[nH]c2ccccc12)c1cc(-c2ccccc2)n[nH]1,0.229
15,COc1cccc(C(c2sc3ncnn3c2O)N2CCc3ccccc3C2)c1 (stereo not given),-0.404
16,COc1cccc(N2C(=O)CC(N3CCc4ccccc43)C2=O)c1 (stereo not given),-0.243
17,CCOC(=O)c1ccc(NC(=O)Nc2ccc3c4c(cccc24)C(=O)N3CC)cc1,0.0515
18,O=C(Nc1ccc2c(c1)OCO2)C(c1ccccc1)N1CCC2(CC1)OCCO2 (stereo not given),-0.254
19,O=C(NCC1CCCO1)c1ccc(CS(=O)(=O)c2ccc(Br)cc2)o1 (stereo not given),-0.161
20,CCOC(=O)C1CCN(C(=O)CN(C)S(=O)(=O)c2cc(C)ccc2OC)CC1,0.103
21,CCOCCCNC(=O)C1CCC(CNS(=O)(=O)c2ccc(F)cc2)CC1 (stereo not given),0.0607
22,Cc1ccnc(NC(=O)c2ccoc2C)c1,-0.455

row,SMILES,z-score
1,COc1cccc(NC(=O)C2C3C=CC4(O3)C2C(=O)N(C(C)C)C4C(=O)NC2CCCCC2C)c1 (stereo not given),0.0349
2,COCCCn1c2nc3ccccc3nc2c2c(=O)n(Cc3cccs3)cnc21,-0.0914
3,CCOc1ccccc1OCCn1nnc2ccccc21,0.385
4,COc1ccc(-c2nc3n(n2)C(c2ccccc2Cl)C(C(N)=O)=C(C)N3)cc1 (stereo not given),-0.212
5,CC(C)(C)c1ccc(S(=O)(=O)Nc2cccnc2)cc1,-0.237
6,Cc1nn(Cc2ccc(C(=O)NC(C)(C)C)o2)c(C)c1Br,0.0484
7,Cc1ccc(C(=O)NCCc2cccc(Cl)c2)cc1[N+](=O)[O-],0.105
8,COc1cc(C(=O)NC(=S)Nc2ccc(N3CCCC3)cc2)cc(OC)c1OC,-0.391
9,COc1ccc(C(=O)Nc2ccccc2N2CCN(C(=O)C(C)C)CC2)cc1Cl,0.512
10,COc1cc(C2Sc3ccccc3NC3=C2C(=O)OC3)cc(OC)c1OC (stereo not given),-0.286
11,CCOCCCNCc1c(Cl)cccc1Cl,-0.357
12,CCC(C)NC(=O)C(CCSC)NC(=O)c1ccccc1 (stereo not given),0.251
13,COc1ccc(C2Nc3ccccc3C(=O)N2c2ccccc2)cc1CSc1ccccn1 (stereo not given),-0.13
14,N#CC(c1ccc(Cl)cc1)c1ncc(C(F)(F)F)cc1Cl (stereo not given),-0.0701
15,Cc1cccc(CN(C)CCc2ccccn2)c1,-0.645
16,COc1ccc(C(CC(=O)O)NC(=O)c2ccccc2)cc1OC (stereo not given),-0.105
17,O=C(Nc1nc(-c2ccc(Cl)s2)cs1)c1ccccc1,0.171
18,CN(/N=C/c1cccnc1)c1cnn(-c2ccc(F)c(Cl)c2)c(=O)c1Cl,-0.0102
19,COc1ccc(-n2cccc2/C=C2/NC(=O)N(c3cccc(Cl)c3)C2=O)cc1,1.07
20,COCCCNC(=O)c1ccc(CNS(=O)(=O)c2ccc(NC(C)=O)cc2)cc1,0.124
21,CCOc1ccc(C(C)=O)cc1N1C(=O)C2C3C=CC(O3)C2C1=O (stereo not given),-0.01
22,CCOC(=O)C1CCCN(C(=O)C2CCCN(S(C)(=O)=O)C2)C1 (stereo not given),0.0209

row,SMILES,z-score
1,CCN(CC)CCN1C(=O)C(=O)/C(=C(/O)c2cnn(-c3ccccc3)c2C)C1c1ccc(C)o1 (stereo not given),0.00665
2,Cc1ccc(S(=O)(=O)NCCSc2ccccc2)cc1[N+](=O)[O-],-0.0158
3,CCN(CC)S(=O)(=O)c1ccc(N/N=C/c2cc(OC)c(OC)cc2OC)nc1,-0.171
4,Cc1ccc(C(=O)N2CCN(C(=O)c3ccccc3)C2c2ccc(N(C)C)cc2)cc1 (stereo not given),0.17
5,CCCc1nc(SCC(=O)N2CCc3ccccc32)c2c(C)c(C)sc2n1,-0.214
6,CCN(CC)C(=O)c1ccc(C(=O)c2ccccc2)cc1,-0.631
7,Cn1cccc1/C=C1\CC(C(C)(C)C)C/C(=C\c2cccn2C)C1=O (stereo not given),-0.348
8,O=C1NC(c2ccccc2)=N/C1=C/c1ccco1,-0.338
9,CCCn1nnc(NC(=O)c2cccc(OCc3ccccc3)c2)n1,0.00303
10,COCCN(C(=S)Nc1cccc(OC)c1)C1CCN(C(C)C)CC1,-0.31
11,COc1ccc(OC)c(S(=O)(=O)n2nc(C)cc2C)c1,0.244
12,O=C(CN1CCSC1=NCc1ccccc1)c1ccccc1,0.153
13,CCCCCc1ccc(-c2ccc(/C=C/C(N)=O)cc2)nc1,-0.563
14,COc1ccc(N2C(=O)CCC(C(=O)N3CCCCC3)C2c2ccc(OC)c(OC)c2)cc1 (stereo not given),0.367
15,CC(=O)c1sc(NC(=O)c2ccc(F)c(F)c2)nc1C,0.507
16,CCSc1nc(C(F)(F)F)cc(=O)n1-c1ccccc1,-0.0745
17,CCC(C)NC(=O)C1c2cc(OC)c(OC)cc2C(=O)N(C)C1c1cccs1 (stereo not given),-0.125
18,CCCN1C2CCCC1CC(NC(=O)c1cc(OC)c(OC)c(OC)c1)C2 (stereo not given),-0.439
19,CCC(CC)NC(=O)CCc1nc2ccccc2c(=O)[nH]1,-0.168
20,Cc1nnc(SCC(=O)N2CCOCC2)s1,0.532
21,Fc1ccc(-n2[nH]nnc2=S)cc1N1CCCC1,-0.553
22,Cc1ccc(Br)cc1S(=O)(=O)N1CCN(c2ccccc2)CC1,-0.421

row,SMILES,z-score
1,COc1cccc2cc(C(=O)n3ccc(C)n3)c(=O)oc12,-1.33
2,O=C(c1ccccc1)N(Cc1ccc(F)cc1)C1CCS(=O)(=O)C1 (stereo not given),-0.0413
3,CCCNC(=O)c1ccccc1NC(=O)C1COc2ccccc2O1 (stereo not given),-0.394
4,CCCC(=O)Nc1nc2n(n1)C(c1ccccc1)CC(=O)N2 (stereo not given),0.108
5,CC(C)(C)n1nnnc1C(c1cccs1)N1CCN(c2ccccc2)CC1 (stereo not given),-0.223
6,NNc1nc2sc3c(c2c(=O)[nH]1)CCc1ccccc1-3,0.414
7,S=c1[nH]nc(C2CC2)n1Cc1ccco1,0.0104
8,Cc1cc(C)c(OCC(=O)Nc2ccc3c(c2)OCO3)cc1C,-0.119
9,Cc1cc(C)n(-c2ccc(C(=O)Nc3nc4ccccc4s3)cc2)n1,-0.388
10,O=C1/C(=C/c2cccnc2)Oc2cc(OS(=O)(=O)c3ccc(Cl)cc3)ccc21,0.0689
11,COc1cccc(C(C(=O)NC2CCCC2)N(Cc2ccccc2OC)C(=O)c2ccco2)c1 (stereo not given),-0.323
12,O=C1OC(c2cccc([N+](=O)[O-])c2)C2(CCCC2)C(=O)C12CCCCC2 (stereo not given),-0.0355
13,O=C(O)c1ccc(CSc2ncn[nH]2)cc1,0.0804
14,CCCOc1ccc(Br)cc1/C=N/O,-0.606
15,CSC(=N/N=C(\N)c1cnccn1)SC,-0.178
16,CC(C)C(NC(=O)OCc1ccccc1)C(=O)NC1CCCCC1 (stereo not given),0.0443
17,Nc1c(N(CCO)C(=O)COc2ccc(Cl)cc2)c(=O)[nH]c(=O)n1Cc1ccccc1,-0.167
18,CCOC(=O)C1CCN(C(=O)c2ccccc2NC(=O)c2ccc(Br)cc2)CC1,-0.129
19,CCOC(=O)COc1ccc2c(c1)c(C(=O)OCC)c(C)n2CC,-2.56
20,CCN1/C(=C2/OC(=S)N(C)C2=O)Sc2ccccc21,1.02
21,CSC1=C(C#N)C(c2cccs2)CC(=O)N1C (stereo not given),-0.0432
22,Cn1cccc1Cc1nnc(SCC(=O)Nc2ccc3c(c2)OCCO3)n1CCc1ccccc1,1.59

row,SMILES,z-score
1,COc1ccc2[nH]c3c(N4CCC(O)(c5cccc(C(F)(F)F)c5)CC4)ncnc3c2c1,-0.461
2,CN(C)S(=O)(=O)c1ccc2oc(SCC(N)=O)nc2c1,0.202
3,COc1ccc(C(=O)Nc2ccc(NC(=O)c3cnccn3)cn2)cc1,-0.0686
4,C/C(=N/NS(C)(=O)=O)c1ccc2ccccc2c1,-0.0951
5,O=C(O)CCCN=C1CCCc2ccccc2N1,0.175
6,CCOC(=O)C1=C(C)N=c2s/c(=C3\C(=O)Nc4ccccc43)c(=O)n2C1c1ccc2c(c1)OCO2 (stereo not given),-0.479
7,CCOC(=O)c1sc2nc(N3CCCC3)c3c(c2c1N)CC(C)(C)OC3,-0.218
8,COc1ccc(NC(=O)CCSCCC(=O)Nc2ccc(OC)cc2OC)c(OC)c1,-0.281
9,CCNS(=O)(=O)c1ccc(CCC(=O)NCCC2=CCCCC2)cc1,-0.0738
10,Cc1cc(N2C(=O)C3CC=CCC3C2=O)cc(C)c1Br (stereo not given),0.272
11,Cc1cc(=O)oc2cc(OCCSc3nnc(-c4ccccc4)o3)ccc12,0.0557
12,COC(=O)C1=C(C)N(CC(C)C)C(=O)/C1=C\c1cccs1,-0.236
13,Cn1c(CSc2nc3ccccc3s2)nnc1SCC(=O)NCc1ccccn1,0.0355
14,CCOC(=O)c1sc2nc(CSc3nc4ccccc4n3CC)[nH]c(=O)c2c1C,2.68
15,CCc1ccc(N(C(=O)c2ccoc2C)C(C(=O)NC2CCCC2)c2ccc(OC)cc2)cc1 (stereo not given),-0.169
16,Cc1oc(-c2ccc(Cl)cc2)nc1CN1CCC(C(=O)NCc2cccnc2)CC1,-0.164
17,O=C(/C=C\Nc1cccc(F)c1)c1ccc2c(c1)OCO2,0.21
18,C/C(=N\Nc1ccc(Cl)cc1)c1ccccn1,-0.158
19,CN(CC(=O)Nc1ccccc1N1CCOCC1)S(=O)(=O)c1ccc(Cl)cc1,-0.106
20,CCN(CC)S(=O)(=O)c1ccc(NC2c3ccccc3C(=O)N2Cc2ccc3c(c2)OCO3)cc1 (stereo not given),0.00823
21,COc1c(C)cc(S(=O)(=O)NC2CC(C)(C)NC(C)(C)C2)c(C)c1C,0.35
22,Cc1cccc(NC(=S)NCCC(C)C)c1,0.131
